# According to the supplement of paper PMC4604168 (melanoma cell lines):
# The other results are listed elsewhere or left out. Single values are uncertain, as repeats are few or missing.
# How the values were obtained:
# Assay in all cases: cell count relative to DMSO control; melanoma cells; higher = more viable cells
# Details in all cases: library dose: low library concentration; 72 h
# [1] = tested on: COLO792
# [2] = tested on: COLO800
# [3] = tested on: COLO829
# [4] = tested on: G361
# [5] = tested on: IPC-298
# [6] = tested on: IST-MEL1
# [7] = tested on: LB2518-MEL
# [8] = tested on: LOXIMVI
# [9] = tested on: MEL-HO
# 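Further: cell number obtained by counting DAPI-stained nuclei in high-throughput microscope images with image analysis software, screen run in 1,536-well plates.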
Structure (SMILES),cell count [1] [%],cell count [2] [%],cell count [3] [%],cell count [4] [%],cell count [5] [%],cell count [6] [%],cell count [7] [%],cell count [8] [%],cell count [9] [%]
"O=C(O)[C@@H]1[O][Sb](=[O])([O][Sb]2(=[O])[O][C@H]([C@H](O)CO)[C@H](O)[C@H](C(=O)O)[O]2)[O][C@H]([C@H](O)CO)[C@@H]1O (stereo partly specified) [stibogluconate] + Cn1cc(/C=C2\C(=O)Nc3cccnc32)c2ccccc21 [GW441756] (first compound 2 µM, partner dose 0.4 µM)",106,91.7,91.2,103,102,108,112,115,102
"O=C(O)[C@@H]1[O][Sb](=[O])([O][Sb]2(=[O])[O][C@H]([C@H](O)CO)[C@H](O)[C@H](C(=O)O)[O]2)[O][C@H]([C@H](O)CO)[C@@H]1O (stereo partly specified) [stibogluconate] + CN(C)S(=O)(=O)c1ccc2c(c1)/C(=C/c1cc3c([nH]1)CCCC3)C(=O)N2 [SU6656] (first compound 2 µM, partner dose 0.4 µM)",105,103,96.7,89.8,105,110,97.9,111,102
"O=C(Nc1cc(C(F)(F)F)cc(C(F)(F)F)c1)c1cc(Cl)ccc1O + Cn1cncc1[C@@](N)(c1ccc(Cl)cc1)c1ccc2c(c1)c(-c1cccc(Cl)c1)cc(=O)n2C [tipifarnib] (first compound 0.016 µM, partner dose 0.01 µM)",82.3,102,92,97.2,101,87.6,75.9,93.8,98.7
"O=C(Nc1cc(C(F)(F)F)cc(C(F)(F)F)c1)c1cc(Cl)ccc1O + CCN(CC)CCCCNc1ncc2cc(-c3cc(OC)cc(OC)c3)c(NC(=O)NC(C)(C)C)nc2n1 [PD173074] (first compound 0.016 µM, partner dose 0.1 µM)",104,84.5,81.6,109,96,100,113,134,121
"O=C(Nc1cc(C(F)(F)F)cc(C(F)(F)F)c1)c1cc(Cl)ccc1O + c1cc(-c2cnn3cc(-c4ccc(OCCN5CCCCC5)cc4)cnc23)ccn1 [Dorsomorphin] (first compound 0.016 µM, partner dose 0.4 µM)",107,86.3,79.8,113,102,91.1,114,63.6,96.5
"O=C(Nc1cc(C(F)(F)F)cc(C(F)(F)F)c1)c1cc(Cl)ccc1O + Cc1ccc(NC(=O)c2cccc(N(C)C)c2)cc1NC(=O)c1ccc(O)cc1 [ZM336372] (first compound 0.016 µM, partner dose 2 µM)",98.6,102,85.3,114,80,87,86.9,148,89.9
"Cn1nnc2c(C(N)=O)ncn2c1=O [temozolomide] + COc1cc(Nc2ncc(F)c(Nc3ccc4c(n3)NC(=O)C(C)(C)O4)n2)cc(OC)c1OC [Tamatinib] (first compound 2 µM, partner dose 0.4 µM)",62.2,88.1,89.8,87,78.7,89.6,80.9,64.2,93.9
"O=C(O)[C@@H]1[O][Sb](=[O])([O][Sb]2(=[O])[O][C@H]([C@H](O)CO)[C@H](O)[C@H](C(=O)O)[O]2)[O][C@H]([C@H](O)CO)[C@@H]1O (stereo partly specified) [stibogluconate] + O=C1NC(=O)/C(=C/c2ccc(-c3ccc(F)cc3O)o2)S1 [AS252424] (first compound 2 µM, partner dose 1 µM)",94.2,98.9,80.6,104,96.3,112,104,75,112
"O=C(Nc1cc(C(F)(F)F)cc(C(F)(F)F)c1)c1cc(Cl)ccc1O + COc1cc(N2CCC(N3CCN(C)CC3)CC2)ccc1Nc1ncc(Cl)c(Nc2ccccc2S(=O)(=O)C(C)C)n1 [NVP-TAE684] (first compound 0.016 µM, partner dose 0.08 µM)",102,74.9,86.4,90.9,95,94.5,117,113,84.5
"Cn1nnc2c(C(N)=O)ncn2c1=O [temozolomide] + CC1(C)NC(=O)N(c2ccc([N+](=O)[O-])c(C(F)(F)F)c2)C1=O [nilutamide] (first compound 2 µM, partner dose 1 µM)",87.2,124,84.1,93.8,93,89.3,98.8,89,95.8
"O=C(O)c1ccc2c(c1)nc(Nc1cccc(Cl)c1)c1ccncc12 + COc1cc(N2CCC(N3CCN(C)CC3)CC2)ccc1Nc1ncc(Cl)c(Nc2ccccc2S(=O)(=O)C(C)C)n1 [NVP-TAE684] (first compound 0.4 µM, partner dose 0.08 µM)",86.9,112,94.9,85.4,96.5,108,134,75.6,90.9
"O=C(O)[C@@H]1[O][Sb](=[O])([O][Sb]2(=[O])[O][C@H]([C@H](O)CO)[C@H](O)[C@H](C(=O)O)[O]2)[O][C@H]([C@H](O)CO)[C@@H]1O (stereo partly specified) [stibogluconate] + O=C(O)c1ccc(-c2c[nH]c3ncc(-c4ccccc4)cc23)cc1C1CCCC1 [GSK650394] (first compound 2 µM, partner dose 0.16 µM)",93.5,129,109,106,104,102,103,88.6,93.7
"O=C(O)c1ccc2c(c1)nc(Nc1cccc(Cl)c1)c1ccncc12 + NCC(=O)Nc1ccc(-n2nc(C(F)(F)F)cc2-c2ccc3c(ccc4ccccc43)c2)cc1 [OSU03012] (first compound 0.4 µM, partner dose 1 µM)",79.5,124,74.9,99.3,85.4,108,123,90.1,96.2
"O=C(O)[C@@H]1[O][Sb](=[O])([O][Sb]2(=[O])[O][C@H]([C@H](O)CO)[C@H](O)[C@H](C(=O)O)[O]2)[O][C@H]([C@H](O)CO)[C@@H]1O (stereo partly specified) [stibogluconate] + O=C(Nc1cccc(Cl)c1)Nc1ncc(CCNc2ncnc3ccsc23)s1 [SNS314] (first compound 2 µM, partner dose 0.0008 µM)",103,91.5,115,101,103,101,98.3,78.9,97.8
"Cc1cc(N2CCOCC2)cc2[nH]c(-c3c(NC[C@@H](O)c4cccc(Cl)c4)cc[nH]c3=O)nc12 + OCCn1cc(-c2cnc3nnn(Cc4ccc5ncccc5c4)c3n2)cn1 [PF04217903] (first compound 0.2 µM, partner dose 1 µM)",94.1,87.6,110,112,103,98.1,94.1,78.5,101
"O=C(O)[C@@H]1[O][Sb](=[O])([O][Sb]2(=[O])[O][C@H]([C@H](O)CO)[C@H](O)[C@H](C(=O)O)[O]2)[O][C@H]([C@H](O)CO)[C@@H]1O (stereo partly specified) [stibogluconate] + CN(NC(=O)CC(=O)NN(C)C(=S)c1ccccc1)C(=S)c1ccccc1 [STA4783] (first compound 2 µM, partner dose 0.006 µM)",97.1,92.8,71.1,103,94.2,94.7,88.2,85,102
"O=C(O)[C@@H]1[O][Sb](=[O])([O][Sb]2(=[O])[O][C@H]([C@H](O)CO)[C@H](O)[C@H](C(=O)O)[O]2)[O][C@H]([C@H](O)CO)[C@@H]1O (stereo partly specified) [stibogluconate] + CCc1ccc(CCOc2ccc(CC3SC(=O)NC3=O)cc2)nc1 [pioglitazone] (first compound 2 µM, partner dose 2 µM)",104,154,109,90,100,101,105,82.3,85.5
"O=C(O)[C@@H]1[O][Sb](=[O])([O][Sb]2(=[O])[O][C@H]([C@H](O)CO)[C@H](O)[C@H](C(=O)O)[O]2)[O][C@H]([C@H](O)CO)[C@@H]1O (stereo partly specified) [stibogluconate] + Cc1cc([N+](=O)[O-])ccc1NS(=O)(=O)c1cc(Cl)ccc1Cl [FH535] (first compound 2 µM, partner dose 1 µM)",84.6,93.3,143,96.1,86.5,84.8,91.3,72.9,95.3
"O=C(O)[C@@H]1[O][Sb](=[O])([O][Sb]2(=[O])[O][C@H]([C@H](O)CO)[C@H](O)[C@H](C(=O)O)[O]2)[O][C@H]([C@H](O)CO)[C@@H]1O (stereo partly specified) [stibogluconate] + COc1cc2c(Oc3ccc4[nH]c(C)cc4c3F)ncnc2cc1OCCCN1CCCC1 [cediranib] (first compound 2 µM, partner dose 0.4 µM)",91.4,108,88.9,107,95.3,108,81.6,129,102
